# Screen size: about 390,000 compounds; about 930 (0.24%) were called active. Inconclusive results, whose numbers are uncertain, are shown with a selection of clear calls. The call rests on the fitted dose curve; in most records, active means well fitted activation curve with a large enough effect; inconclusive means small, poorly fitted or top-dose-only effect; inactive means no such curve, though single readings can be large or run the other way. Potencies of inconclusive entries are doubtful fits and often do not repeat.
# Assay: qHTS for Suppressors of FUS Proteinopathy: Primary screen using FUS-linked yeast assay; further: nearly all actives have a fitted effect of over 55% in size;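 on growth rescue (activation): plate controls were DMSO vehicle for no effect and reference control for full effect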
# Conditions: S. cerevisiae FUS-expressing, OD600, 24 h; Potency: growth rescue; growth rescue (activation): at 76.6 µM (top of the series)
# Method in brief: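 Read-out: OD at 600 nm after 24hr at 30C, reporting rescue of FUS-induced yeast toxicity. Cells at OD 0.005 in galactose (2%) minimal medium; compounds tested in a dilution series; CP55940 titration from 92uM final as control.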
# Potency means the concentration at half of the fitted maximal effect; tags describe the fitted curve by direction and shape.
SMILES,growth rescue (activation),Potency
CCn1cc(C(=O)NCCCN(C)c2ccccc2)c(=O)c2cc(S(=O)(=O)N(C)C)ccc21,inactive: 4.18%,–
CS(=O)(=O)N1N=C(c2ccco2)CC1c1ccccc1Cl (stereo not given),–,"inconclusive: 31.6 µM [activator, partial curve, poor fit]"
O=C(CSc1nc2ccccc2nc1Cc1ccc(Cl)cc1)N1CCN(c2ccccc2)CC1,inactive: -17.3%,–
O=C1NC(Cc2ccc(O)cc2)c2nc3ccc(Br)cc3c(=O)n2-c2ncccc21 (stereo not given),–,"inconclusive: 50.1 µM [activator, single point]"
O=C(CSc1nc(-c2cccc(F)c2)[nH]c1-c1ccccc1)Nc1ccc2c(c1)OCO2,–,"inconclusive: 25.1 µM [activator, partial curve, poor fit]"
COc1cc(NC(=O)c2cc3cc4ccc(C)cc4nc3o2)cc(OC)c1OC,inactive: -21.4%,–
CCc1ccccc1N(C)C(=O)C1CCCN(c2ncnc3c2nc2n3CCCCC2)C1 (stereo not given),inactive: 17.1%,–
Cn1c(=O)c2cc(NC(=O)Cc3ccccc3F)ccc2n1-c1ccc(C(C)(C)C)cc1,–,"inconclusive: 25.1 µM [activator, partial curve]"
Cc1nc(SCc2ccc(Cl)c(Cl)c2)n[nH]1,inactive: -18.4%,–
O=C(C1=C(O)C(=O)N(CC2CCCO2)C1c1ccc(Cl)cc1Cl)c1ccco1 (stereo not given),–,"inconclusive: 31.6 µM [activator, partial curve, poor fit]"
Cc1ccc(-n2ncc(C(=O)NCc3ccco3)c2C2CCN(C(=O)OC(C)(C)C)CC2)cc1C,–,"inconclusive: 28.2 µM [activator, single point]"
CC(=O)OCP(C)(=O)COC(C)=O,inactive: -23.4%,–
Cc1noc(/C=C/c2ccco2)c1S(=O)(=O)N1CCC(C(=O)N(C)Cc2ccccc2)CC1,–,"inconclusive: 31.6 µM [activator, partial curve, poor fit]"
CCN(CC)c1nc2cc(OC)ccc2cc1C#N,inactive: -1.41%,–
O=[N+]([O-])c1ccc(/C=[N+](\[O-])CCO)o1,inactive: -34.3%,–
COc1ccc(Cl)cc1NC(=O)C/C(C)=N/NC(=O)CCc1ccccc1,–,"inconclusive: 0.794 µM [activator, partial curve, poor fit]"
CCOc1ccc(S(=O)(=O)N2CCN(C(=O)Cc3ccc(S(=O)(=O)N4CCOCC4)s3)CC2)cc1,–,"inconclusive: 39.8 µM [activator, single point]"
COc1ccc(/C(O)=C/C(=O)C(=O)NNC(=O)C(O)(c2ccccc2)c2ccccc2)cc1,–,active: 28.2 µM
CCN(CC)S(=O)(=O)c1ccc(C(=O)NCCSc2c(-c3ccccc3)[nH]c3ccccc23)cc1,–,"inconclusive: 25.1 µM [activator, single point]"
Cc1ccc(SCc2nc3ccccc3n2CC(=O)Nc2c(C)cccc2C)cc1,–,"inconclusive: 14.1 µM [activator, partial curve]"

SMILES,growth rescue (activation),Potency
N#CCSC1=Nc2ccccc2C2=NC(CCC(=O)N3CCN(c4ccccc4)CC3)C(=O)N12 (stereo not given),–,"inconclusive: 50.1 µM [activator, single point]"
O=C(Nc1ccc2nc(N3CCOCC3)sc2c1)c1cc2ccccc2o1,inactive: -7.48%,–
Cc1cc(NC(=O)Cn2nc(C(F)(F)F)c3c2CCC3)n(-c2ccccc2)n1,–,"inconclusive: 3.55 µM [activator, partial curve, poor fit]"
Cc1ccc2c(c1)c1cccc3c1n2CCN3CCC(N)=O,inactive: 12.7%,–
CCOc1ccccc1NC(=O)C(=O)Nc1ccc2nc3n(c(=O)c2c1)CCCCC3,inactive: -15.9%,–
OCc1cnc(SCc2ccccc2F)n1Cc1ccc(F)cc1,inactive: -4.12%,–
O=C(Oc1c(-c2ccccc2)c(=O)n2c3c(cccc13)CC2)c1cccc([N+](=O)[O-])c1,inactive: 12.6%,–
O=C(NN1CCOCC1)c1cc(-c2cccc(Cl)c2)nc2ccccc12,–,"inconclusive: 44.7 µM [activator, partial curve, poor fit]"
Cn1nc(CC(=O)Nc2ccc(N3CCN(C(=O)OC(C)(C)C)CC3)cc2)c2ccccc2c1=O,–,"inconclusive: 35.5 µM [activator, partial curve, poor fit]"
CCOc1ccc(CCN2C(=S)N([C@@H](CC(C)C)CN3CCCC3CN3C(=S)NC[C@@H]3Cc3ccc(O)cc3)C[C@@H]2Cc2ccc(O)cc2)cc1 (stereo not given in full),–,"inconclusive: 28.2 µM [activator, single point]"
Cc1cc(=O)oc2c3c(cc(OCC(=O)NCc4ccco4)c12)OC(C)(C)CC3,–,"inconclusive: 28.2 µM [activator, single point]"
Cc1ccc(-c2cc(C(=O)N/N=C/c3c(C)nn(C)c3C)c3ccccc3n2)cc1C,–,"inconclusive: 25.1 µM [activator, single point]"
C#CCOCCOCCOCCNc1nc(N2CCN(C(=O)CCCCCCCCCCNC(=O)[C@H](CCCCN)n3cc(CCO)nn3)CC2)nc(N2CCN(C(=O)CCCCCCCCCCNC(=O)[C@H](CCCCN)n3cc(C[C@@H](C)CC)nn3)CC2)n1,–,"inconclusive: 17.8 µM [activator, partial curve, poor fit]"
Cc1ccc(CN2CC(C(=O)N3CCN(S(=O)(=O)c4ccc(C(C)C)cc4)CC3)CC2=O)cc1 (stereo not given),–,"inconclusive: 31.6 µM [activator, single point]"
Nc1nnc(COc2ccccc2)s1,inconclusive: 105% [activator],–
COc1ccc(CC(N)c2csc(NC(=O)Nc3ccc(F)cc3)n2)cc1 (stereo not given),–,"inconclusive: 35.5 µM [activator, partial curve, poor fit]"
O=C(NC1(C(F)(F)F)N=C2SCCN2C1=O)C1CCCCC1 (stereo not given),–,"inconclusive: 35.5 µM [activator, single point]"
Cc1ccc(-n2c(C)csc2=N)cc1,inconclusive: 63.3% [activator],–
COC(=O)[C@@]12C[C@@H](CC(=O)NCc3ccccc3)C(=O)N(CCc3ccc(OC)c(OC)c3)C1=CCC(C)(C)C2,–,"inconclusive: 15.8 µM [activator, partial curve, poor fit]"
Cc1nnsc1-c1nc2ccccc2n1C(CCc1ccccc1)c1nc2ccccc2[nH]1 (stereo not given),–,"inconclusive: 28.2 µM [activator, single point]"
